Assay results: PubChem BioAssay AID504332 (National Center for Advancing Translational Sciences (NCATS), 2011)
The campaign covered roughly 350,000 compounds. About 31,000 (8.9%) were called active. Inconclusive results, whose numbers are uncertain, are shown with a selection of clear calls. The call rests on the fitted dose curve; in most records, active means well fitted inhibition curve with a large enough effect; inconclusive means small, poorly fitted or top-dose-only effect; inactive means no such curve, though single readings can be large or run the other way. Potencies of inconclusive entries are doubtful fits and often do not repeat.

Target: Histone-lysine N-methyltransferase EHMT2 (Homo sapiens) (UniProt Q96KQ7)
Experiment: qHTS Assay for Inhibitors of Histone Lysine Methyltransferase G9a; further: nearly all actives have a fitted effect of over 75% in size
Conditions: G9a H3K9 monomethylation, AlphaScreen, 2 h; activity, negative = inhibition: at 59 µM (top of the series) unless noted
How it was run: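 G9a (20 nM) preincubated 15 min RT with compounds, then 500 nM biotinylated H3K9 peptide and 20 uM SAM added; 2 h RT reaction. Monomethyl-H3K9 product detected by AlphaScreen with anti-H3K9me1 antibody, streptavidin donor and anti-rabbit IgG acceptor beads.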
On the % scale 0 is the no-effect control and ±100 the full control effect; potency means the concentration at half of the fitted maximal effect; tags describe the fitted curve by direction and shape.

Sequence of UniProt Q96KQ7 (Q96KQ7 whole entry, looked up): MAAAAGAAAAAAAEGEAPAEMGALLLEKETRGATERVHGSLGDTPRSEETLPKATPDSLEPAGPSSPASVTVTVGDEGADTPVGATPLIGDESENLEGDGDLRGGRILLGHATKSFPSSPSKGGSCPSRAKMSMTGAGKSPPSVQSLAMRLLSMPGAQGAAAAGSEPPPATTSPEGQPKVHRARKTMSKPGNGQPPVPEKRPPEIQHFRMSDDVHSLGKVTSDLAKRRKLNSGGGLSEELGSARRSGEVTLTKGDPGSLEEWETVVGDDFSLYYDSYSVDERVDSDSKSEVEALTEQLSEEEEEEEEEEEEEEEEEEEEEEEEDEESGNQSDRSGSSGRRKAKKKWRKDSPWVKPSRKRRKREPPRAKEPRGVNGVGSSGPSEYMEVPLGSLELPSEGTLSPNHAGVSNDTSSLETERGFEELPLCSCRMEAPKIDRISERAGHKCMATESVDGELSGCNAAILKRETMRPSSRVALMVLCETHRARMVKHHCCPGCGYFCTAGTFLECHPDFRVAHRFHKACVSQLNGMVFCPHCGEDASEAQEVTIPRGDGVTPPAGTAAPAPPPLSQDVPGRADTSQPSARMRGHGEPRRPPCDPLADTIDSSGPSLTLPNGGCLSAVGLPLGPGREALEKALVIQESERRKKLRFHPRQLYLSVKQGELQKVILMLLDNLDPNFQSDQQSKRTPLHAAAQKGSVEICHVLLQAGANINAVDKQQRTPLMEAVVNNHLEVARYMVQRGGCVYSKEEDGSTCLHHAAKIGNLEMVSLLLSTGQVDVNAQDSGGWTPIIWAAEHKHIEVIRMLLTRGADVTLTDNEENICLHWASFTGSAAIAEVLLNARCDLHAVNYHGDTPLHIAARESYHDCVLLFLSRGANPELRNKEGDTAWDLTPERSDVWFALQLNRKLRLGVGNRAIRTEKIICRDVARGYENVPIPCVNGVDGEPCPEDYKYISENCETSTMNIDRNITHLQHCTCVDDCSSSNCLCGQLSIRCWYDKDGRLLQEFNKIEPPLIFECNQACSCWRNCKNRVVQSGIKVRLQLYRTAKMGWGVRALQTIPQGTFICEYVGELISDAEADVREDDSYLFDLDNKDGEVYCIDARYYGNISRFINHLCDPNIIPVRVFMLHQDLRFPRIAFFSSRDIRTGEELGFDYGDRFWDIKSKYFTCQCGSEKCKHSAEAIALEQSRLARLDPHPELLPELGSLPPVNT

Row | SMILES | Potency | activity, negative = inhibition
1 | CCCCCCCCCCCCN1C/C(=C\C(=O)OCC)c2cc(C(F)(F)F)ccc2S1(=O)=O | inconclusive: 89.1 µM [inhibitor, single point] | 
2 | CCOC(=O)c1c(C)[nH]c(C(=O)N/N=C\c2ccccc2O)c1C |  | inactive: 15.2% [at 102 µM]
3 | CCN1CCN(CCC(=O)Nc2ccc3c(c2)OCO3)CC1 | inconclusive: 35.5 µM [inhibitor, single point] | 
4 | CC(C)CN(C(=O)C1CCCO1)c1c(N)n(CC(C)C)c(=O)[nH]c1=O (stereo not drawn) |  | inactive: -48.2% [at 102 µM]
5 | COc1cc([N+](=O)[O-])c(N2CCOCC2)c([N+](=O)[O-])c1OC | inconclusive: 79.4 µM [inhibitor, single point] | 
6 | O=S(=O)(NC(=NCCc1ccc(Cl)cc1)c1ccccc1Cl)c1cccs1 |  | inactive: -4.62% [at 102 µM]
7 | COc1cc([N+](=O)[O-])ccc1NC(=S)N1CCN(c2ccccn2)CC1 | active: 44.7 µM | 
8 | Cn1c(=O)cc(Nc2ccccc2)c2c(=O)n(-c3ccccc3)c(=O)n(-c3ccccc3)c21 | inconclusive: 44.7 µM [inhibitor, partial curve, poor fit] | 
9 | COc1ccc(CNC(=O)c2ccc(NC(=O)N3CCSc4ncccc43)cc2)cc1 | inconclusive: 3.55 µM [inhibitor, partial curve, poor fit] | 
10 | CCOc1ccc(NS(=O)(=O)c2cc(C(=O)N3CCN(c4ccccc4O)CC3)ccc2Cl)cc1 | inconclusive: 44.7 µM [inhibitor, partial curve] | 
11 | Cc1c(C(=O)NCc2ccccc2CN2CCCC2)oc2ccc(F)cc12 |  | inactive: 0.198%
12 | O=C1CC(Nc2ccc(N3CCOCC3)cc2)C(=O)N1c1ccccc1F (stereo not drawn) | active: 8.91 µM | 
13 | Cc1ccc(C(=O)Nc2ccccc2N2CCCC2)s1 | inconclusive: 3.98 µM [inhibitor, single point] | 
14 | CCCCn1c(N)c(N(CC(C)C)C(=O)c2cc3c(s2)CCCCC3)c(=O)[nH]c1=O | inconclusive: 3.55 µM [inhibitor, single point] | 
15 | Cc1cc2c(cc3c(SCC(=O)Nc4ccc(Cl)cc4F)nncn32)o1 | inconclusive: 20 µM [inhibitor, partial curve, poor fit] | 
16 | CCOC(=O)c1cccc(NC(=O)NC(C)c2c(-n3cccc3)sc3c2CCN(C)C3)c1 (stereo not drawn) | inconclusive: 35.5 µM [inhibitor, partial curve, poor fit] | 
17 | COc1ccc(CCN2C(=O)C3C4C=CC(C4)C3C2=O)cc1OC (stereo not drawn) |  | inactive: -8.24% [at 102 µM]
18 | Cc1ccc2c(c1C)NC(C)CC2C (stereo not drawn) | active: 14.1 µM | 
19 | CCSC(N)=Nc1ccc(C(F)(F)F)cc1 | inconclusive: 79.4 µM [inhibitor, partial curve] | 
20 | Cc1ccc(-c2ccc(CCC(=O)O)n2CC2CCCO2)cc1 (stereo not drawn) | inconclusive: 89.1 µM [inhibitor, single point] | 
21 | CC(C)CNC(=O)COC(=O)c1c2c(nc3ccccc13)/C(=C/c1cccs1)CC2 | inconclusive: 89.1 µM [inhibitor, single point] | 
22 | Cc1ccc(S(=O)(=O)c2nc(-c3ccccc3F)oc2NCc2ccccc2)cc1 | inconclusive: 0.282 µM [inhibitor, partial curve, poor fit] | 
23 | O=C(CCc1nnc(CCCCc2ccccc2)o1)NCCN1CCOC1=O | active: 22.4 µM | 

Row | SMILES | Potency | activity, negative = inhibition
24 | O=C(NNC(=S)NC(=O)c1cccc([N+](=O)[O-])c1)c1ccc(Br)cc1 | active: 44.7 µM | 
25 | CC(C)C(=O)Nc1cccc(NC(=S)NC(=O)c2cccs2)c1 | inconclusive: 7.08 µM [inhibitor, partial curve, poor fit] | 
26 | COC(=O)[C@@H]1CC[C@H](C)[C@@H](c2ccc(C)cc2)N1C(=O)c1ccc(/C=N/O[C@@H](C)c2cn([C@H](CO)Cc3ccccc3)nn2)cc1 | inconclusive: 31.6 µM [inhibitor, full curve, poor fit] | 
27 | COC(=O)N1CCC2(CCN(C(=O)Nc3ccc(OC)cc3)CC2)CC1 |  | inactive: 1.95% [at 12.7 µM]
28 | COc1cccc(N2CCN(C3CC(=O)N(c4ccc(Cl)c(Cl)c4)C3=O)CC2)c1 (stereo not drawn) | inconclusive: 11.2 µM [inhibitor, partial curve, poor fit] | 
29 | CCOC(=O)c1cccc(NC(=O)CCn2cccc2)c1 | active: 39.8 µM | 
30 | Cc1ccc(-c2onc3ccc(Cl)cc23)cc1 |  | inactive: 21.2%
31 | Cc1ccc(C(=O)C2=C(O)C(=O)N(c3ncccn3)C2c2ccc(Cl)cc2)o1 (stereo not drawn) | active: 10 µM | 
32 | CCC(=O)c1cc(F)ccc1OCC(=O)Nc1ccc2c(c1)OCCO2 |  | inactive: -5.64% [at 12.7 µM]
33 | O=c1ccc2cc(S(=O)(=O)Nc3ccc(OC(F)(F)F)cc3)ccc2[nH]1 | inconclusive: 11.2 µM [inhibitor, partial curve, poor fit] | 
34 | COC(=O)c1ccc(Cn2c(SCc3ccc(F)cc3)nc3ccncc32)cc1 | inconclusive: 39.8 µM [inhibitor, single point] | 
35 | COC(=O)C1C(=O)c2c(n[nH]c2C)CC1(C)C (stereo not drawn) | inconclusive: 79.4 µM [inhibitor, partial curve, poor fit] | 
36 | CSc1nc(C)c(C(=O)C[n+]2ccccc2C)cc1C#N |  | inactive: 3.26% [at 102 µM]
37 | CN1CCN(S(=O)(=O)c2cccc(C(=O)Nc3ccccc3N3CCCCC3)c2)CC1 |  | inactive: 3.75% [at 12.7 µM]
38 | COc1ccc(O)c(C(=O)c2coc(=N)c(C(=O)Nc3ccc(SC(F)F)cc3)c2)c1 | inconclusive: 89.1 µM [inhibitor, single point] | 
39 | COc1ccc2nc(NC(=O)C3CCCN(S(=O)(=O)c4cccc5nsnc45)C3)sc2c1 (stereo not drawn) | inconclusive: 22.4 µM [inhibitor, single point] | 
40 | COc1cc(/C=N/NC(=O)c2ccc(-c3ccccc3)cc2)cc(OC)c1OC |  | inactive: -48.4% [at 102 µM]
41 | Cc1nnc(N/N=C/c2cc(C)n(-c3ccc(F)cc3)c2C)n1N | inconclusive: 11.2 µM [inhibitor, partial curve, poor fit] | 
42 | CCOC(=O)c1ccc(NC(=O)COC)cc1 |  | inactive: -1.05% [at 12.7 µM]
43 | CC(=O)N1CCN(C(=O)c2ccc(-n3c(C)ccc3C)cc2)CC1 | inconclusive: 89.1 µM [inhibitor, single point] | 
44 | O=C(COC(=O)c1cc(F)c(F)cc1Cl)NC1CC1 |  | inactive: 6.47% [at 102 µM]
45 | CCOc1ccc(N2CC(C(=O)Nc3ccc(S(=O)(=O)NCC4CCCO4)cc3)CC2=O)cc1 (stereo not drawn) | inconclusive: 89.1 µM [inhibitor, single point] | 
46 | CC(C)C(C)NC(=O)COc1nc2ccccc2nc1N(C)C1CCCCC1 (stereo not drawn) |  | inactive: -5.83% [at 102 µM]

Row | SMILES | Potency | activity, negative = inhibition
47 | CC(C)CCn1c(=O)c2cccnc2n(CC(=O)Nc2ccccc2F)c1=O |  | inactive: 2.6%
48 | Cn1c2ccccc2c2cnn(CC(=O)Nc3ccccc3F)c(=O)c21 | inconclusive: 31.6 µM [inhibitor, single point] | 
49 | O=C(Nc1ccc(S(=O)(=O)Nc2nccs2)cc1)c1cnc(Cl)c(Cl)c1 |  | inconclusive: -84.1% [inhibitor]
50 | CC(C)c1cc(=O)n2[nH]c(N)nc2n1 | active: 79.4 µM | 
51 | COc1cc(C(=O)NC(=S)Nc2ccc3c(c2)C(=O)N(C)C3=O)cc(OC)c1OC | active: 44.7 µM | 
52 | Cc1cccc(NC(=O)c2sc3nc(-c4cc5ccc(O)cc5oc4=O)[nH]c(=O)c3c2C)c1 |  | inactive: 4.98%
53 | O=C(Cn1c(=O)nc(-c2ccccc2F)c2cc(Cl)ccc21)NCCCc1ccccc1 |  | inactive: -1.12%
54 | COc1cccc(NC(=O)CNc2cc(S(=O)(=O)N3CCOCC3)ccc2N2CCCC2)c1 | inconclusive: 3.98 µM [inhibitor, single point] | 
55 | Cc1c(C(=O)O/N=C(\N)c2ccccn2)cccc1[N+](=O)[O-] | active: 31.6 µM | 
56 | Cc1ccc(OCC(O)CN2CCc3ccccc3C2)c(C)c1 (stereo not drawn) | inconclusive: 39.8 µM [inhibitor, partial curve, poor fit] | 
57 | COc1ccc(-c2nnc(SCC(=O)NC3CCCC3)n2C)cc1 | inconclusive: 89.1 µM [inhibitor, single point] | 
58 | CCNC(=O)O/N=C1\CCCCC1c1ccc([N+](=O)[O-])cc1[N+](=O)[O-] (stereo not drawn) | inconclusive: 50.1 µM [inhibitor, partial curve, poor fit] | 
59 | COc1cc(-c2ncc3ccccn23)cc(OC)c1OC | active: 25.1 µM | 
60 | Cc1cnc(NC(=O)Cc2c[nH]c3ccccc23)s1 |  | inactive: -48.2% [at 102 µM]
61 | C#CCOCCOCCOCCNc1nc(N2CCN(C(=O)CCCCCCCCCCNC(=O)[C@H](CCCCN)n3cc(CCCC(=O)O)nn3)CC2)nc(N2CCN(C(=O)CCCCCCCCCCNC(=O)[C@@H]([C@H](C)O)n3cc(C)nn3)CC2)n1 |  | inactive: 2.34% [at 2.33 µM]
62 | Cc1ccc(C(=O)N/C(=C\c2ccc(-c3cccc([N+](=O)[O-])c3)o2)C(=O)NCCCN2CCOCC2)cc1 | inconclusive: 14.1 µM [inhibitor, single point] | 
63 | Cc1nc2ccccn2c1C(=O)NCCCN1CCOCC1 | inconclusive: 25.1 µM [inhibitor, partial curve, poor fit] | 
64 | CCOc1c(Cl)cc(C(=O)N(Cc2ccc(N(C)C)cc2)Cc2ccco2)cc1Cl | inconclusive: 12.6 µM [inhibitor, partial curve, poor fit] | 
65 | CCCSc1nc(=O)n2cc(C)ccc2n1 | inconclusive: 2.51 µM [inhibitor, full curve, poor fit] | 
66 | COc1ccc(C(=O)Nc2ccc(S(=O)(=O)Nc3nccnc3OC)cc2)cc1 |  | inactive: -38.3%
67 | Oc1ccc(Cl)cc1CNc1cnc2ccccc2c1 | inconclusive: 89.1 µM [inhibitor, single point] | 
68 | CC1CCN(CCCCOc2ccc(Br)cc2)CC1 | inconclusive: 20 µM [inhibitor, single point] | 
